Screen size: about 340,000 compounds; about 6,900 (2%) were called active. No stated cut-off is given here; in the data, active means inhibition above about 30%; inactive means below that, where a call was filed. This is a selection; strong and weak results do not stand in their true shares. The source gives no active or inactive call for entries shown without one.
What follows are compounds tested against D(2) dopamine receptor (Homo sapiens) (UniProt P14416) (assay: HTS Assay for Allosteric Antagonists of the Human D2 Dopamine Receptor: Primary Screen for Antagonists). Conditions: HEK293 TREx D2 cells, calcium flux, dopamine EC80; at 10 µM; stronger effect = higher value.
UniProt P14416, sequence (P14416 whole entry, looked up): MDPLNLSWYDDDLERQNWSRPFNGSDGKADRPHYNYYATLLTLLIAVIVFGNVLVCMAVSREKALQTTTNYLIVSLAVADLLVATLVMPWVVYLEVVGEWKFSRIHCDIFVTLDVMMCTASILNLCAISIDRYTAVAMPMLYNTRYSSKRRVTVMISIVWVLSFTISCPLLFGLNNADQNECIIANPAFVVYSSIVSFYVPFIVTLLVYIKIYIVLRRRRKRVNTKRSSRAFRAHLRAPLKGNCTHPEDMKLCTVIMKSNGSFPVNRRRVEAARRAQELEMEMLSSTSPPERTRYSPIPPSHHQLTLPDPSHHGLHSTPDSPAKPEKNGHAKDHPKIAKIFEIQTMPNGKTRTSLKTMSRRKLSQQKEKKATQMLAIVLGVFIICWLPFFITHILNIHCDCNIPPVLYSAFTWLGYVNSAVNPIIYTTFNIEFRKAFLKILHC
In short: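 HEK293 T-REx D2 cells, tet-induced, calcium dye no-wash. Cpd pintool add, 180 s kinetic, then EC80 DA, 180 s kinetic. Ca flux read.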
`CC(=O)Nc1ccc(NC(=O)c2cc(=O)c3ccccc3o2)cc1` showed an inhibition of -3.21%. For `Cc1c(Cl)c(C(=O)NNC(=S)NCc2ccco2)nn1C`, the inhibition was active: 34.9%. In the case of `COc1ccc(OCc2ccc(-c3nc(C#N)c(N4CCN(c5ccccc5)CC4)o3)o2)cc1`, the inhibition is reported as -13.7%. For `Cc1cc(-c2ccc(C)c(S(=O)(=O)Nc3cccc(C)n3)c2)on1`, the inhibition was -9.91%. In the case of `Cc1ccccc1-c1cc(C(=O)NCc2cccs2)n(CC2CC(c3cccnc3)=NO2)n1` (stereo unspecified), the inhibition is reported as active: 37.9%. With `CCc1ccc(-n2nnc(-c3nsc(NC(=O)c4ccccc4Cl)n3)c2C)cc1` the inhibition was 22.1%. `COc1ccc(-c2nc(-c3cc4cc(Br)ccc4oc3=O)cs2)cc1` showed an inhibition of 5.68%. Compound `COc1ccccc1N1CCN(c2nc3ccccc3n3cnnc23)CC1` has an inhibition of 1.16%. Compound `O=C(CCn1nc(-c2ccccc2)c2ccccc2c1=O)Nc1ccccc1` has an inhibition of 8.81%. `Cc1cccc(C)c1NC(=O)Nc1csc2c1CCCC2` was tested, and the inhibition was 7.5%. `Cc1ccc2nc(N(CCCN(C)C)C(=O)c3ccco3)sc2c1` gave an inhibition of -26%. With `O=C(Nc1ccc(Br)cc1)c1ccc(F)c(S(=O)(=O)NC2CCCCCC2)c1` the inhibition was -7.25%. For `CC1(C)Cc2c(ccc3ccccc23)/C(=C/C(=O)N2CCCCC2)N1`, the inhibition was active: 32.7%. Work on `Cc1ccccc1-c1nc(SCC(=O)NCc2ccc(F)cc2)c2c(=O)n(C)c(=O)n(C)c2n1` yielded an inhibition of -16.7%. With `COc1ccc(NC(=O)c2ccco2)cc1NC(=O)COc1cccc(C)c1C` the inhibition was 3.29%. In the case of `CCc1ccc(NC(=O)CN(C)S(=O)(=O)c2ccc3c(c2)c(=O)n(C)c(=O)n3C)cc1`, the inhibition is reported as -2.81%. Work on `COc1ccc(C)cc1NC(=O)COc1cc(=O)n(C)c2ccccc12` yielded an inhibition of 8.04%. `Cc1ccc(NC(=O)c2nnn(Cc3ccccc3)c2N)cc1C` gave an inhibition of -5.16%. For `CCSc1nnc(NC(=O)c2c(-c3ccccc3Cl)noc2C)s1`, the inhibition was active: 109%. `CC1CN(C(=O)Nc2ccc(C(=O)NCc3ccccc3F)cc2)c2ccccc2S1` (stereo unspecified) showed an inhibition of 11.4%. `COC(=O)c1ccc(NC(=O)CSc2n[nH]c(-c3ccccc3)n2)cc1` was tested, and the inhibition was -14.4%. For `CCN1CCN(c2nc3c(C)cccn3c(=O)c2/C=C(\C#N)S(=O)(=O)c2ccccc2)CC1`, the inhibition was active: 37.3%. For `c1cnc(N2CCN(Cc3ccc4c(c3)OCO4)CC2)cn1`, the inhibition was active: 89.9%. Compound `Cc1ccc(C)c(N2C(=O)N(Cc3ccccc3C)c3ccccc3S2(=O)=O)c1` has an inhibition of 5.13%. `O=C(Nc1nc2c(Cl)cccc2s1)c1ccc(S(=O)(=O)N2CCc3ccccc32)cc1` showed an inhibition of -0.419%. `O=C(NC(=S)Nc1ccc2oc(=O)ccc2c1)c1cccc(Cl)c1` was tested, and the inhibition was active: 30.4%. `COC(=O)c1nnn(-c2cccc(C)c2)c1N` was tested, and the inhibition was 1.97%. Compound `O=C(Nc1ccc(Oc2ccccc2)cc1)c1ccc(F)c(S(=O)(=O)N2CCN(c3cccc(Cl)c3)CC2)c1` has an inhibition of -16.2%. For `COc1ccc(-n2c(SCc3nc(-c4ccc(C)cc4)no3)nnc2-c2ccccc2)cc1`, the inhibition was -0.808%. Work on `CC(C)Oc1ccc(CNC(=O)CN2C(=O)CCn3nc(-c4cn(C)c5ccccc45)cc32)cc1` yielded an inhibition of 2.63%. Compound `CCOC(=O)c1ccc(NC(=O)CN(Cc2ccc(C)cc2)S(=O)(=O)c2ccc(C)cc2)cc1` has an inhibition of 0.97%. Work on `Cc1cccc(C)c1-n1ncc(C(=O)NCCCN2CCCCC2)c1C1CCN(C(=O)OC(C)(C)C)CC1` yielded an inhibition of -10.9%. With `CCCCOc1ccc(C(=O)NCC(c2ccc(Cl)cc2)N2CCOCC2)cc1` (stereo unspecified) the inhibition was 3.19%. `COc1ccc(/C=C/C(=O)Nc2ccc(C)cc2)cc1` was tested, and the inhibition was -13.9%. `CCN(CC)c1ccc(NC(=O)Cn2ncc3c(C)n(Cc4ccccc4F)c(C)c3c2=O)c(C)c1` gave an inhibition of 4.9%. In the case of `Cc1ccc(NC(=O)Cc2ccc(NC(=O)N3CCCCc4ccccc43)cc2)cc1Cl`, the inhibition is reported as 4.58%. With `COc1ccccc1C(=O)Nc1ccnn1C1CCN(CCCC2CCCC2)CC1` the inhibition was active: 30.7%. For `COc1cccc(-c2nc(S(=O)(=O)c3ccc(C)cc3)c(N3CCCCCC3)o2)c1`, the inhibition was 9.47%. `CC(=O)c1ccc(NC(=O)Nc2ccc3snnc3c2)cc1` was tested, and the inhibition was -8.06%. `CCOc1ccc(-c2nnc(SCC(=O)NC3CCCCC3)nc2-c2ccc(OCC)cc2)cc1` showed an inhibition of 6.19%. Compound `Cc1ccc(C)c(N2CCN(c3nc4ccccc4c(=O)n3-c3ccc(Cl)cc3)CC2)c1` has an inhibition of 0.535%. `COc1ccc2c(c1)Cc1sc(NC(=O)c3ccccc3C)nc1-2` was tested, and the inhibition was -17.6%. `COc1ccc(NC(=O)Cn2cnc3ccc(S(=O)(=O)N4CCC(C)CC4)cc3c2=O)c(OC)c1` showed an inhibition of -0.379%. In the case of `COc1cccc(CNC(=O)c2ccc(-c3nc(CS(=O)c4ccccc4)c(C)o3)cc2)c1` (stereo unspecified), the inhibition is reported as 6.19%. In the case of `COc1ccc(C2=C(C)C(N3CCC(C(=O)NCc4ccc(C)o4)CC3)=NS2(=O)=O)cc1`, the inhibition is reported as 0.549%. For `Cc1ccc(Sc2ccc(N3CCCC(C(=O)Nc4ccc(Br)cc4)C3)nn2)cc1` (stereo unspecified), the inhibition was 11%. `CCCNC(=O)COC(=O)/C=C/c1ccc(C)o1` was tested, and the inhibition was active: 30.3%. `Cc1c(C)n(Cc2ccccc2)c2ccc(C(=O)N3CCN(c4ccccc4F)CC3)cc12` gave an inhibition of -2.55%. In the case of `CCc1c(C(=O)N/N=C/c2cn[nH]c2-c2ccc(F)cc2)csc1C`, the inhibition is reported as active: 71.1%. `Cc1nc2ccn(Cc3cccnc3)c(=O)c2cc1C(=O)N1CCN(c2ccccc2F)CC1` showed an inhibition of -4.79%. With `CCNCc1nc2cc(OC)c(OC)cc2c(=O)[nH]1` the inhibition was active: 32.7%. Compound `COc1ccc(SCc2cc(=O)c3ccc(C)c(C)c3[nH]2)cc1` has an inhibition of 16.2%. Work on `O=C(NCCc1ccc(Cl)cc1)c1cc(-c2ccccc2)n[nH]1` yielded an inhibition of -3.96%. With `CCc1ccc(-n2nc(CO)c(C(=O)NC(C)c3ccc(Cl)cc3)n2)cc1` (stereo unspecified) the inhibition was 7.83%. `O=C(Nc1ccc(C(=O)NCCCN2CCN(c3ccccc3)CC2)cc1)C1=CSCCO1` was tested, and the inhibition was active: 81.4%. In the case of `COc1cccc(CNC(=O)CN2C(=O)CCc3cc(S(=O)(=O)N4CCOCC4)ccc32)c1`, the inhibition is reported as -6.24%. In the case of `COc1ccc(OC)c2sc(N(Cc3cccnc3)C(C)=O)nc12`, the inhibition is reported as -22.3%. `CCOC(=O)N1CCN(Cc2nc3cc(NC(=O)CC)ccc3n2C(C)C)CC1` was tested, and the inhibition was -4.95%. `CC(C)c1ccccc1NC(=S)NC1CCN(Cc2ccccc2)CC1` was tested, and the inhibition was active: 95.7%. `CCOC(=O)N1CCN(CC(O)COc2ccccc2C(C)CC)CC1` (stereo unspecified) was tested, and the inhibition was active: 32.4%. With `CCN(CCCNC(=O)CSc1cc(=O)n(CC)c2ccccc12)c1ccccc1` the inhibition was -2.37%. With `Cc1ccccc1NC(=O)CSC1=C(C#N)C(c2ccsc2)CC(=O)N1` (stereo unspecified) the inhibition was active: 36.7%. With `CCN(CC)CCOc1c(C)cccc1Cl` the inhibition was active: 62%. For `Cc1ccc(NC(=O)C2CCCCC2)cc1C`, the inhibition was active: 36.2%. In the case of `CCc1ccc(NC(=O)Nc2cn(C)c(=O)c3ccccc23)cc1`, the inhibition is reported as 14.9%. With `COC(=O)C1=C(C)NC(=O)NC1c1cn(-c2ccccc2)nc1-c1ccc(OC)c(Br)c1` (stereo unspecified) the inhibition was 10.8%. Work on `O=c1oc2cc(O)ccc2cc1-c1nc(-c2ccc(Cl)c(Cl)c2)cs1` yielded an inhibition of 4.2%. Work on `CCCn1c(COc2cccc(C)c2)nc2ccccc21` yielded an inhibition of -22.9%. With `CCc1sc(Nc2cccc(Cl)c2)nc1-c1cc2cccc(OC)c2oc1=O` the inhibition was -1.47%. With `Cc1ccc(CN2CCN(c3ccccn3)CC2)s1` the inhibition was active: 93.6%. For `Cc1c(C(=O)OCc2ccccc2)[nH]c2c1C(=O)CC(c1ccc(N(C)C)cc1)C2` (stereo unspecified), the inhibition was 1.52%. With `COc1ccc(NC(=O)CN2C(=O)C(C)(C)c3cc(S(=O)(=O)N4CCCCC4)ccc32)cc1Cl` the inhibition was 7.54%. `Cc1ccc(/C=C/c2onc(C)c2S(=O)(=O)N2CCC(C(=O)Nc3ccc(OC(F)(F)F)cc3)CC2)cc1` gave an inhibition of 23.2%. Work on `COc1ccc2c(c1)c1c(c(=O)n(-c3ccccc3C)c(=O)n1CC(N)=O)n2C` yielded an inhibition of 14.6%. `CCCN(CCC)C(=O)Cn1c(=O)n(CCCCCC(=O)Nc2ccccc2)c(=O)c2sccc21` gave an inhibition of 0.864%. With `Cc1ccc(CNC(=O)CCc2c(C)nc3c(-c4ccc(F)cc4)c(C)nn3c2C)cc1` the inhibition was -12.3%. `COC(=O)c1ccc(NC(=O)Cn2ccn3nc(-c4ccc(OC)cc4)cc3c2=O)cc1` showed an inhibition of 1.68%. Work on `Cc1cccc(OCC(=O)Nc2cccc(C(=O)OCc3cc(=O)n4nc(C(C)C)sc4n3)c2)c1` yielded an inhibition of 12.5%. Compound `COc1cc(C(=O)N2CCNC(=O)C2CC(=O)Nc2ccc(C)c(C)c2)cc(OC)c1OC` (stereo unspecified) has an inhibition of -9.65%. `CCCCNc1nc2c(-c3cccc(C)c3)nnn2c2ccccc12` gave an inhibition of -2.72%. Work on `CCN1CCc2c(sc(NC(=O)c3ccc(S(=O)(=O)N(C)C4CCCCC4)cc3)c2C(N)=O)C1` yielded an inhibition of -6.85%. `CC(=O)O[C@]1(C(C)=O)CC[C@H]2[C@@H]3C=C(Cl)C4=CC(=O)[C@@H]5C[C@@H]5[C@]4(C)[C@H]3CC[C@@]21C` was tested, and the inhibition was active: 39.6%. In the case of `O=C(/C=C\c1ccc2c(c1)OCO2)NC1CC(=O)N(c2ccccc2)C1` (stereo unspecified), the inhibition is reported as 5.09%. `CSc1ccc(CNC(=O)Cn2c(-c3cccs3)cc3cc(F)ccc32)cc1` gave an inhibition of 11.8%. In the case of `CC1Cc2cc(S(=O)(=O)CCC(=O)Nc3ccc(F)cc3)ccc2N1C(=O)C1CC1` (stereo unspecified), the inhibition is reported as -6.08%. For `COc1cc2ccccc2cc1C(=O)OCC(=O)c1c(N)n(C)c(=O)n(C)c1=O`, the inhibition was active: 52.1%. `O=C(Nc1ccsc1C(=O)NC1CCCCC1)c1ccccc1` was tested, and the inhibition was active: 30.7%. Compound `COc1cc(OC)cc(C(=O)Nc2ccc3nc4c(c(Nc5ccc(OC)c(OC)c5)c3c2)CCCC4)c1` has an inhibition of -21.9%. `O=C(Nc1ccc(-c2nc3ccccc3o2)c(O)c1)c1cc(Cl)ccc1Cl` gave an inhibition of 6.11%. `CCCCc1ccc(Nc2cc(C)nc(-n3nc(C)cc3C)n2)cc1` was tested, and the inhibition was -6.96%. `Cc1occc1C(=O)N/N=C/c1ccccc1[N+](=O)[O-]` was tested, and the inhibition was active: 34.6%. With `CCN(C(=O)CCS(=O)(=O)c1ccc2c(c1)CCN2C(C)=O)c1cccc(C(F)(F)F)c1` the inhibition was 1.47%. With `CCCCNC(=O)CC1Nc2cc(C)c(C)cc2NC1=O` (stereo unspecified) the inhibition was 13.2%. With `O=C(Nc1ccc2nc3n(c(=O)c2c1)CCCCC3)c1ccccc1[N+](=O)[O-]` the inhibition was active: 30.2%. In the case of `CN(C)S(=O)(=O)c1ccc(C(=O)NCCSc2c(-c3ccc(Br)cc3)[nH]c3ccccc23)cc1`, the inhibition is reported as 8.97%. For `COc1ccccc1NC(=O)c1nn(C)c2c1CS(=O)(=O)c1ccccc1-2`, the inhibition was -7.46%.

Source: PubChem BioAssay AID485344 (National Center for Advancing Translational Sciences (NCATS), 2010)
Further: 0% is about no effect.
